According to paper PMC12820563:
This is one part of the list. The list includes weakly bound sequences.

Each sequence was assayed against T1, MBP-FoxP3dN (UniProt Q99JB6) (assay: PD-seq (MBP pull-down with sequencing)). Details: 20 mM Tris-HCl pH 7.5, 100 mM NaCl, 1.5 mM MgCl2, 0.4 uM protein, 0.1 uM dsDNA library, 30 min, room temperature, amylose pull-down; high values mean tight binding; double strand, one strand shown.
T1 sequence: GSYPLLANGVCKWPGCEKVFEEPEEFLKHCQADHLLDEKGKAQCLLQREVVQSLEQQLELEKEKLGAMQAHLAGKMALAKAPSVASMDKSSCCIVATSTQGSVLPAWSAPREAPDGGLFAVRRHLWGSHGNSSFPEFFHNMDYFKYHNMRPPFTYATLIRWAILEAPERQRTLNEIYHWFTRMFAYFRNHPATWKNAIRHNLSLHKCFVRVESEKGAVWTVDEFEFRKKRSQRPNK

Sequence	binding signal (RPM ratio (pull-down/input))
GATGATTGTTCTCCCAGCTGATGAATTATACCGCTCGAGTAAACAAATTTTCCTAATCTTTCTGTTCAAGCGCCATCTAC	0.371
GATGATTGTTCTCCCAGCTGATGAATTGTGCACCTCGAGTAAACAAATTTTCCTAATCTTTCTGTTCAAGCGCCATCTAC	2.92
GATGATTGTTCTCCCAGCTGATGAATTCGCCTGTTCGAGTAAACAAATTTTCCTAATCTTTCTGTTCAAGCGCCATCTAC	0.767
GATGATTGTTCTCCCAGCTGATGAATTTTTACCTTCGAGTAAACAAATTTTCCTAATCTTTCTGTTCAAGCGCCATCTAC	0.223
GATGATTGTTCTCCCAGCTGATGAATTGAATCAATCGAGTAAACAAATTTTCCTAATCTTTCTGTTCAAGCGCCATCTAC	0.391
GATGATTGTTCTCCCAGCTGATGAATTACCCAAATCGAGTAAACAAATTTTCCTAATCTTTCTGTTCAAGCGCCATCTAC	0.259
GATGATTGTTCTCCCAGCTGATGAATTATAGGTGTCGAGTAAACAAATTTTCCTAATCTTTCTGTTCAAGCGCCATCTAC	0.644
GATGATTGTTCTCCCAGCTGATGAATTTCCTTCCTCGAGTAAACAAATTTTCCTAATCTTTCTGTTCAAGCGCCATCTAC	0.282
GATGATTGTTCTCCCAGCTGATGAATTTAGTTAATCGAGTAAACAAATTTTCCTAATCTTTCTGTTCAAGCGCCATCTAC	0.584
GATGATTGTTCTCCCAGCTGATGAATTGGCTGTCTCGAGTAAACAAATTTTCCTAATCTTTCTGTTCAAGCGCCATCTAC	1.29
GATGATTGTTCTCCCAGCTGATGAATTCGTAAAGTCGAGTAAACAAATTTTCCTAATCTTTCTGTTCAAGCGCCATCTAC	0.256
GATGATTGTTCTCCCAGCTGATGAATTATAAACTTCGAGTAAACAAATTTTCCTAATCTTTCTGTTCAAGCGCCATCTAC	0.499
GATGATTGTTCTCCCAGCTGATGAATTCGTCCCTTCGAGTAAACAAATTTTCCTAATCTTTCTGTTCAAGCGCCATCTAC	0.784
GATGATTGTTCTCCCAGCTGATGAATTATTAGATTCGAGTAAACAAATTTTCCTAATCTTTCTGTTCAAGCGCCATCTAC	0.333
GATGATTGTTCTCCCAGCTGATGAATTCTCCGAATCGAGTAAACAAATTTTCCTAATCTTTCTGTTCAAGCGCCATCTAC	0.176
GATGATTGTTCTCCCAGCTGATGAATTACTGTAGTCGAGTAAACAAATTTTCCTAATCTTTCTGTTCAAGCGCCATCTAC	0.484
GATGATTGTTCTCCCAGCTGATGAATTATATCCCTCGAGTAAACAAATTTTCCTAATCTTTCTGTTCAAGCGCCATCTAC	0.537
GATGATTGTTCTCCCAGCTGATGAATTCTACTTTTCGAGTAAACAAATTTTCCTAATCTTTCTGTTCAAGCGCCATCTAC	0.444
GATGATTGTTCTCCCAGCTGATGAATTGACAAGGTCGAGTAAACAAATTTTCCTAATCTTTCTGTTCAAGCGCCATCTAC	0.246
GATGATTGTTCTCCCAGCTGATGAATTTAAACGGTCGAGTAAACAAATTTTCCTAATCTTTCTGTTCAAGCGCCATCTAC	0.263
GATGATTGTTCTCCCAGCTGATGAATTACCTACATCGAGTAAACAAATTTTCCTAATCTTTCTGTTCAAGCGCCATCTAC	0.508

Sequence	binding signal (RPM ratio (pull-down/input))
GATGATTGTTCTCCCAGCTGATGAATTGTAGCGGTCGAGTAAACAAATTTTCCTAATCTTTCTGTTCAAGCGCCATCTAC	0.618
GATGATTGTTCTCCCAGCTGATGAATTTTGATTGTCGAGTAAACAAATTTTCCTAATCTTTCTGTTCAAGCGCCATCTAC	4.74
GATGATTGTTCTCCCAGCTGATGAATTCTGTAGATCGAGTAAACAAATTTTCCTAATCTTTCTGTTCAAGCGCCATCTAC	0.912
GATGATTGTTCTCCCAGCTGATGAATTATCAGGTTCGAGTAAACAAATTTTCCTAATCTTTCTGTTCAAGCGCCATCTAC	0.267
GATGATTGTTCTCCCAGCTGATGAATTCACTACCTCGAGTAAACAAATTTTCCTAATCTTTCTGTTCAAGCGCCATCTAC	0.315
GATGATTGTTCTCCCAGCTGATGAATTTACGGAGTCGAGTAAACAAATTTTCCTAATCTTTCTGTTCAAGCGCCATCTAC	0.322
GATGATTGTTCTCCCAGCTGATGAATTCAAACCCTCGAGTAAACAAATTTTCCTAATCTTTCTGTTCAAGCGCCATCTAC	0.269
GATGATTGTTCTCCCAGCTGATGAATTGGGGGATTCGAGTAAACAAATTTTCCTAATCTTTCTGTTCAAGCGCCATCTAC	0.551
GATGATTGTTCTCCCAGCTGATGAATTGACTACGTCGAGTAAACAAATTTTCCTAATCTTTCTGTTCAAGCGCCATCTAC	0.34
GATGATTGTTCTCCCAGCTGATGAATTCTCGAGCTCGAGTAAACAAATTTTCCTAATCTTTCTGTTCAAGCGCCATCTAC	0.189
GATGATTGTTCTCCCAGCTGATGAATTACATACTTCGAGTAAACAAATTTTCCTAATCTTTCTGTTCAAGCGCCATCTAC	0.596
GATGATTGTTCTCCCAGCTGATGAATTAGGCCGATCGAGTAAACAAATTTTCCTAATCTTTCTGTTCAAGCGCCATCTAC	0.531
GATGATTGTTCTCCCAGCTGATGAATTGGAACGGTCGAGTAAACAAATTTTCCTAATCTTTCTGTTCAAGCGCCATCTAC	0.199
GATGATTGTTCTCCCAGCTGATGAATTGAAAGGCTCGAGTAAACAAATTTTCCTAATCTTTCTGTTCAAGCGCCATCTAC	0.275
GATGATTGTTCTCCCAGCTGATGAATTACCGCTGTCGAGTAAACAAATTTTCCTAATCTTTCTGTTCAAGCGCCATCTAC	0.443
GATGATTGTTCTCCCAGCTGATGAATTTCGAGCTTCGAGTAAACAAATTTTCCTAATCTTTCTGTTCAAGCGCCATCTAC	0.301
GATGATTGTTCTCCCAGCTGATGAATTTCCTGGTTCGAGTAAACAAATTTTCCTAATCTTTCTGTTCAAGCGCCATCTAC	0.206
GATGATTGTTCTCCCAGCTGATGAATTCTTCCCATCGAGTAAACAAATTTTCCTAATCTTTCTGTTCAAGCGCCATCTAC	0.214
GATGATTGTTCTCCCAGCTGATGAATTCTTTAAATCGAGTAAACAAATTTTCCTAATCTTTCTGTTCAAGCGCCATCTAC	0.176
GATGATTGTTCTCCCAGCTGATGAATTACCTCGGTCGAGTAAACAAATTTTCCTAATCTTTCTGTTCAAGCGCCATCTAC	0.223
GATGATTGTTCTCCCAGCTGATGAATTTATGAACTCGAGTAAACAAATTTTCCTAATCTTTCTGTTCAAGCGCCATCTAC	0.58

Sequence	binding signal (RPM ratio (pull-down/input))
GATGATTGTTCTCCCAGCTGATGAATTATGAGAATCGAGTAAACAAATTTTCCTAATCTTTCTGTTCAAGCGCCATCTAC	0.285
GATGATTGTTCTCCCAGCTGATGAATTTCGAGCGTCGAGTAAACAAATTTTCCTAATCTTTCTGTTCAAGCGCCATCTAC	0.447
GATGATTGTTCTCCCAGCTGATGAATTTTGTATATCGAGTAAACAAATTTTCCTAATCTTTCTGTTCAAGCGCCATCTAC	7.43
GATGATTGTTCTCCCAGCTGATGAATTGACTTCTTCGAGTAAACAAATTTTCCTAATCTTTCTGTTCAAGCGCCATCTAC	0.366
GATGATTGTTCTCCCAGCTGATGAATTGATTGTCTCGAGTAAACAAATTTTCCTAATCTTTCTGTTCAAGCGCCATCTAC	2.86
GATGATTGTTCTCCCAGCTGATGAATTGTGCAATTCGAGTAAACAAATTTTCCTAATCTTTCTGTTCAAGCGCCATCTAC	6.39
GATGATTGTTCTCCCAGCTGATGAATTCGAGCAATCGAGTAAACAAATTTTCCTAATCTTTCTGTTCAAGCGCCATCTAC	1.65
GATGATTGTTCTCCCAGCTGATGAATTAGCTCTATCGAGTAAACAAATTTTCCTAATCTTTCTGTTCAAGCGCCATCTAC	0.336
GATGATTGTTCTCCCAGCTGATGAATTTGGTCCATCGAGTAAACAAATTTTCCTAATCTTTCTGTTCAAGCGCCATCTAC	0.436
GATGATTGTTCTCCCAGCTGATGAATTCTGGCCATCGAGTAAACAAATTTTCCTAATCTTTCTGTTCAAGCGCCATCTAC	1.12
GATGATTGTTCTCCCAGCTGATGAATTATCTAGATCGAGTAAACAAATTTTCCTAATCTTTCTGTTCAAGCGCCATCTAC	0.241
GATGATTGTTCTCCCAGCTGATGAATTAGTCGGCTCGAGTAAACAAATTTTCCTAATCTTTCTGTTCAAGCGCCATCTAC	0.399
GATGATTGTTCTCCCAGCTGATGAATTCATAGGCTCGAGTAAACAAATTTTCCTAATCTTTCTGTTCAAGCGCCATCTAC	0.321
GATGATTGTTCTCCCAGCTGATGAATTTATGGCATCGAGTAAACAAATTTTCCTAATCTTTCTGTTCAAGCGCCATCTAC	1.43
GATGATTGTTCTCCCAGCTGATGAATTGAACGGTTCGAGTAAACAAATTTTCCTAATCTTTCTGTTCAAGCGCCATCTAC	0.309
GATGATTGTTCTCCCAGCTGATGAATTTCATTTATCGAGTAAACAAATTTTCCTAATCTTTCTGTTCAAGCGCCATCTAC	1.69
GATGATTGTTCTCCCAGCTGATGAATTTGGAATCTCGAGTAAACAAATTTTCCTAATCTTTCTGTTCAAGCGCCATCTAC	1.64
GATGATTGTTCTCCCAGCTGATGAATTCATAGTGTCGAGTAAACAAATTTTCCTAATCTTTCTGTTCAAGCGCCATCTAC	0.918
GATGATTGTTCTCCCAGCTGATGAATTTACAAAGTCGAGTAAACAAATTTTCCTAATCTTTCTGTTCAAGCGCCATCTAC	0.258
GATGATTGTTCTCCCAGCTGATGAATTTTTAATGTCGAGTAAACAAATTTTCCTAATCTTTCTGTTCAAGCGCCATCTAC	0.35
GATGATTGTTCTCCCAGCTGATGAATTCGACTGTTCGAGTAAACAAATTTTCCTAATCTTTCTGTTCAAGCGCCATCTAC	0.593
